Where “and” joins values, the source holds several entries; their conditions need not be identical. Identical values can stand only once. The whole screen tested about 48,000 compounds, of which about 1,200 (2.5%) were called active. Roughly 2% stayed inconclusive and do not appear here.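 The calls were made as follows: active = activation of at least 60% and not above a set upper limit (about 1 call in 100 departs from these limits); inconclusive = activation of 40% to 60%, or above that upper limit; inactive = activation under 40%.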 The list shows a part of the results.

Sequence of UniProt O75388 (O75388 whole entry, looked up): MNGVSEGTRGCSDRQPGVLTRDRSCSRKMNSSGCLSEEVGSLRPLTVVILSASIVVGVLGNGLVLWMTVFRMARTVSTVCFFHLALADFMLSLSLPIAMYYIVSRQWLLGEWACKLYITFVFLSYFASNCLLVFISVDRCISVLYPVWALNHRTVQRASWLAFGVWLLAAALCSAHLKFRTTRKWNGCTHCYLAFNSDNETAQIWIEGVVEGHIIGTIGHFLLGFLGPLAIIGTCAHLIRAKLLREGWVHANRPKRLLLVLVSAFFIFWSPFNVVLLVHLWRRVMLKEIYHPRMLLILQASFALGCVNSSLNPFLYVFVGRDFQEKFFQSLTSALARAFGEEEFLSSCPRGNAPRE

This experiment concerns the target Probable G-protein coupled receptor 32 (Homo sapiens) (UniProt O75388). The experiment in a line: qHTS for Agonists of Human Resolvin D1 Receptor DRV1. The settings on record: CHO-K1 GPR32 beta-arrestin PathHunter luminescence, 90 min; at 76.9 µM; active compounds read high; zero percent set by DMSO-only wells. The source says:
Endogenous resolution of inflammation is known to be transduced through various GPCRs and their natural mediators of lipid nature. Resolvin D1 (RvD1) is one of the active players in resolution of acute inflammation through regulation of anti-inflammatory pathways; it is known to enhance phagocytosis of human macrophages, limits neutrophils infiltration, etc. […] The search for GPR32-activating small molecules with anti-inflammatory effects similar to its natural omega-3 derivative ligand in order to use them as research tools for further studies of inflammation and its resolution was the goal of this screening project. For primary screening assay, we used CHO-K1 GPR32 beta-arrestin cell line (DiscoveRx, #93-0321C2A) and the PathHunter(R) beta-Arrestin Assay (DiscoveRx) which measures recruitment of beta-arrestin to the GPR32 and generates chemiluminescent signal. These engineered cells stably transfected with GPR32 co-express GPR32-fused small 42-amino acid fragment of beta-Gal called ProLinktrade mark, and […] -tagged beta-Arrestin fusion protein. When GPR32 is activated by a ligand, it stimulates binding of beta -Arrestin to ProLink-tagged GPR32, and two parts of beta-Gal complement forming a functional enzyme. Upon substrate (PathHunter(R) Detection reagent) addition, beta-Gal hydrolyzes it and generates a chemiluminescent signal.
The cells were thawed and plated in thawing media containing F-12 HAM (Invitrogen, #11765-054), 10% FBS (Invitrogen, #10082), 1x Glutamine, and 1x Pen/Strep onto the 175-mm flask for 24 hours. Then, thawing media was replaced with Growth media which contains 800microg/mL Geneticin (Invitrogen, #10131) and 300microg/mL Hygromycin B (Invitrogen, #10687) in addition to described above. For the assay, the cells were harvested at ~80% confluent stage with Cell Dissociation buffer (Gibco, #13151), and seeded at 2,500 cells/ 3microL/well in assay media (PathHunter(R) Cell Plating Reagent, DiscoverX, #93-0563R1B) using MultiDrop Combi dispenser (Thermo Scientific, Logan, UT) onto white solid bottom tissue culture-treated 1536-well plates (Greiner # 789173-F) and allowed to attach overnight at 37 degrees C, 95% humidity, 5% CO2, . Next, 23nL/well of compound solutions in DMSO were added with a Pin Tool (Kalypsis, San Diego, CA) to the assay plates. As the basal control (EC0), 23 nL/well of DMSO was used on each plate. The cells were incubated in the presence of compounds or DMSO for 90 minutes at 37 degrees C, 5% CO2. Subsequently, 1.5microL/well of PathHunter(R) Detection Reagent prepared per the manufacturer's instructions was added to the assay plates with BioRAPTR FRDtrade mark dispenser (Beckman Coulter, San Francisco, CA) and incubated for 1 hour at ambient temperature prior to the measurement of the luminescent signal on ViewLux(R) uHTS Microplate Imager (Perkin Elmer, Waltham, MA).
Take `COc1ccc(CCNC(=O)CCCn2c(=O)c3ccccc3n(Cc3ccc(F)cc3Cl)c2=O)cc1OC`: the activation was inactive: -2.35%.

For `COc1ccc(Cn2c(CNS(=O)(=O)c3ccc4c(c3)CCCC4)nc3cccnc32)cc1`, the activation is inactive: 7.09%.

As to `Cc1ccc(CNc2nc3ccccc3c3nc(-c4cccc(C)c4)nn23)cc1`, the activation is inactive: 2.44%.

As for `Cc1ccc2c(c1)c1c(c(=O)n(Cc3ccccc3)c(=O)n1Cc1cccc(C(F)(F)F)c1)n2C`, the activation was inactive: -13%.

Turning to `COc1ccc(CNC(=O)CCc2c(C)nn(-c3ccc(N4CCCCC4)nn3)c2C)c(OC)c1`, the activation is inactive: -16%.

`CCCSc1oc(-c2cccs2)nc1S(=O)(=O)c1ccc(Cl)cc1`: the activation was inactive: -24.8%.

For the compound `O=C(c1cnc(N2CCCCC2)c2ccccc12)N1CCN(c2ccccc2F)CC1`, the activation is inactive: -28.1%.

As to `Cc1ccc(-n2ncc(C(=O)NCCCN3CCN(c4cccc(Cl)c4)CC3)c2-n2cccc2)cc1`, the activation is inactive: -20.1%.

With `CC(=O)N1CCc2cc(CNS(=O)(=O)c3ccc(Br)s3)ccc21`, the activation was inactive: -8.08%.

Regarding `O=C(CSC1=Nc2ccccc2N=C(c2ccc(F)cc2)C1)NCc1ccccc1`, the activation is inactive: -7.71%.

With `c1csc(C2=NC(c3ccncc3)=Nc3ccccc3N2)c1`, the activation was inactive: -12.4%.

With `CCCc1cc(=O)[nH]c(=S)[nH]1`, the activation is inactive: -38.2%.

On to `O=C(NCCc1ccc(Cl)cc1)c1ccc(Cn2c(=O)c3cccn3c3cccnc32)cc1`, for which the activation was inactive: -22.3%.

Regarding `CC1CCCN(Cc2cn3c(-c4cccc(Br)c4)nnc3s2)C1` (configuration not stated), the activation is inactive: -23.8%.

With `CCOc1ccc(C(=O)NCCc2sc3nc(-c4ccc(Cl)cc4)nn3c2C)cc1OCC`, the activation is inactive: -9.52%.

`Cc1noc(Cn2c(=O)c3ccccc3n(CC(=O)Nc3cccc(Cl)c3C)c2=O)n1`: the activation is inactive: -12.2%.

As to `CC1CCN(c2nn3c(=O)c(C(=O)NCc4ccc(Cl)cc4)cnc3s2)CC1`, the activation was inactive: -2.75%.

`CC[N+]1(CC)CCC(=C(c2ccccc2)c2ccccc2)C1C` (configuration not stated): the activation was inactive: 6.96%.

Take `CC(=O)N1CCCc2cc(S(=O)(=O)N(C)CC(=O)Nc3ccc(C)cc3C)ccc21`: the activation was inactive: -3.89%.

Take `N#Cc1nc(/C=C/c2ccc(F)cc2)oc1N1CCN(c2ccccc2)CC1`: the activation is inactive: -26.4%.

On to `CC(C)c1ccc(OCC(=O)Nc2c(Cl)ccc3nsnc23)cc1`, for which the activation is inactive: 45%.

On to `COc1ccc(-n2c(=O)c3c4c(sc3n(Cc3cc(C)ccc3C)c2=O)CN(C(C)=O)CC4)c(OC)c1`, for which the activation was inactive: 1.34%.

Turning to `Cc1ccccc1-n1cc(-c2ccccc2)nc1SCC(=O)Nc1ccc(F)cc1`, the activation was inactive: -35.5%.

Turning to `Cc1cccc(-c2noc(-c3cccnc3NCc3ccco3)n2)c1`, the activation is inactive: -9.69%.

In the case of `CC1=C(CC(=O)O)c2cc(F)ccc2/C1=C\c1ccc(S(C)=O)cc1` (configuration not stated), the activation was inactive: -34% and inactive: -2.77%.

In the case of `O=C(Nc1cccc(NC(=O)c2ccc(Br)o2)c1)c1ccccc1`, the activation was inactive: 16.1%.

In the case of `COc1cccc(C2c3c(oc4ccc(C)cc4c3=O)C(=O)N2CCCN2CCOCC2)c1OC` (configuration not stated), the activation is inactive: -15.5%.

In the case of `Cc1ccc(CNc2nc3ccccc3n3c(C)nnc23)cc1`, the activation is inactive: 4.53%.

As to `CCCn1c2ccccc2c2cnn(CC(=O)N3CCC(C(=O)OCC)CC3)c(=O)c21`, the activation is inactive: -7.53%.

As for `COc1ccc(C2C(=O)N(C3CCC(C)CC3)CC(=O)N2Cc2ccccc2Cl)cc1OC` (configuration not stated), the activation is inactive: -30.4%.

`O=C(NCCN1CCN(c2ccccc2)CC1)Nc1ccccc1Br`: the activation is inactive: -15%.

Turning to `Cc1ccc(Sc2c(C)nn(C(=O)COc3ccc(F)cc3)c2C)cc1`, the activation was inactive: 6.5%.

As to `Cc1onc(-c2ccccc2)c1-c1ccc(S(N)(=O)=O)cc1`, the activation was inactive: 2.37%.

With `C[C@H]1CC2C3CCC4=CC(=O)C=C[C@]4(C)[C@@]3(Cl)[C@@H](O)C[C@]2(C)[C@@]1(O)C(=O)CO` (some centres not stated), the activation is inactive: 3.89%.

`CCC(O)c1cc2c(cc1NC(=O)c1cccc(Br)c1)OCCO2` (configuration not stated): the activation was inactive: -0.0722%.

In the case of `Cc1ccc(CNC(=O)CSc2nc(=O)[nH]c3c2CCCC3)cc1`, the activation is inactive: -10.1%.

In the case of `CN(C)CCCN(C(=O)c1cccs1)c1nc2ccc(F)cc2s1`, the activation is inactive: 23.3%.

With `O=C(CN1C(=O)CCc2cc(S(=O)(=O)N3CCOCC3)ccc21)Nc1cccc(Cl)c1`, the activation is inactive: 9.72%.

As to `N#Cc1nc(-c2ccc(COc3ccccc3)o2)oc1NCc1ccccc1`, the activation is inactive: -13%.

As for `CN1CCN(c2oc(-c3ccc(COc4ccc(Cl)cc4)o3)nc2C#N)CC1`, the activation is inactive: -6.13%.

Regarding `Cc1nc2ccccc2n1CCc1nc2c3ccccc3nc(SCC(=O)Nc3ccc(Br)cc3F)n2n1`, the activation was inactive: -18.3%.

With `COc1ccc(-c2nc3ccccc3o2)cc1NC(=O)C(C)Oc1ccc(Cl)cc1Cl` (configuration not stated), the activation was inactive: 12.5%.

For the origin of these results see PubChem BioAssay AID1346428 (National Center for Advancing Translational Sciences (NCATS), 2018).
